The results in this text go back to paper PMC7819943, “Rice protein-binding microarrays: a tool to detect cis-acting elements near promoter regions in rice”.

Some of the results follow.

This experiment deals with T1, OsWOX13 (Oryza sativa, UniProt Q5QMM3 1-267).
T1 sequence: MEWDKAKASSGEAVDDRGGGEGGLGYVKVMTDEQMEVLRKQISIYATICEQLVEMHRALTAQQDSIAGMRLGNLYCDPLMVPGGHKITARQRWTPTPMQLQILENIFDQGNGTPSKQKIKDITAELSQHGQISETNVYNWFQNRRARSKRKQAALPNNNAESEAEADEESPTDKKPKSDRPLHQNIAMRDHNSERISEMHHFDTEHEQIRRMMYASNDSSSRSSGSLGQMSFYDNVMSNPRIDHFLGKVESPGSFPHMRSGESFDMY
Description: protein-binding microarray (RPBM); PBS, 2% BSA, 51.3 ng/ul salmon testes DNA, 50 uM zinc acetate, 200 nM TF, 25 C, 1 h; high values mean tight binding. The conditions noted are these: protein: recombinant; tags: N-terminal polyhistidine and DsRed monomer fusion (pET32a); label: CyDye5-dUTP incorporated in the synthesized complementary strand; 3' TTTTT single-stranded linker to array surface; dsDNA, one strand shown. The essentials: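 Binding signal is reported as fluorescence intensity per feature (arbitrary units) from an Axon 4000B scanner. Incubation used 200 nM of each Ni–NTA-purified, N-terminally polyhistidine- and DsRed-fused transcription factor from E. coli BL21-CodonPlus on a double-stranded custom Agilent array for 1 h at 25 °C, with 50 µM zinc acetate in the buffer, followed by washing.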
“ATTACACTGTAGTCGTTTATTATGTAAAATAACGGCCTAGCGGAGTCACCTAGTGCAG”: the binding signal was 21600 fluorescence intensity (a.u.).

“AGGTTGACAGAAATCGTTACAGCAATGGCGCGGTTCAAATCGGAGTCACCTAGTGCAG”: the binding signal is 22400 fluorescence intensity (a.u.).

Regarding “ATAACATTATCATTATAGACATTGATATATGAGATAATAGCGGAGTCACCTAGTGCAG”, the binding signal was 6010 fluorescence intensity (a.u.).

“CAGATTAATTAGTTGGTTTATTATGTCATATCTGCGAGACCGGAGTCACCTAGTGCAG”: the binding signal is 30400 fluorescence intensity (a.u.).

For “GTATGATTAATCCGTTCTTCCATATGTAGGTACAATATTACGGAGTCACCTAGTGCAG”, the binding signal was 5700 fluorescence intensity (a.u.).

As for “CTTAATTATTATCATTATCTAAAACTAACCGTATTAGTTACGGAGTCACCTAGTGCAG”, the binding signal is 23000 fluorescence intensity (a.u.).

For “AATTGACGTAATTTCAGGTCGTATTTGTGGTGCAACAACCCGGAGTCACCTAGTGCAG”, the binding signal was 16600 fluorescence intensity (a.u.).

Turning to “ATTTTATAGGAATTAAATAAATTAATTTCTAGAGTCTGTACGGAGTCACCTAGTGCAG”, the binding signal is 11400 fluorescence intensity (a.u.).

On to “GCAAATACTTAATTAATAATGTGTTAATGGGTAACACCGTCGGAGTCACCTAGTGCAG”, for which the binding signal is 22300 fluorescence intensity (a.u.).

As for “ACATCAATAAAATTAAATTAGTTTCATTAAATATAACATTCGGAGTCACCTAGTGCAG”, the binding signal is 5700 fluorescence intensity (a.u.).

As to “CGAATTTAATGGTGCAATCAGATCATGATTTGGATAAGTACGGAGTCACCTAGTGCAG”, the binding signal was 18500 fluorescence intensity (a.u.).

For “GGTTGGGAGTTGGGGAGGAGGGGAGTTAGGCAAAGAGGAGCGGAGTCACCTAGTGCAG”, the binding signal was 3160 fluorescence intensity (a.u.).

As for “ATCAAGAACATAATTAGCATGGTAATATATGCAAGAACAACGGAGTCACCTAGTGCAG”, the binding signal was 3960 fluorescence intensity (a.u.).

Consider “CTGATTAAGAATAGGGTTGATGTCAATGTTGCTGATAATGCGGAGTCACCTAGTGCAG”, for which the binding signal was 7360 fluorescence intensity (a.u.).

Turning to “ACATAAGTCAAACAGATTGTCAATCAGATCGAGCAGTTGTCGGAGTCACCTAGTGCAG”, the binding signal was 41400 fluorescence intensity (a.u.).

Consider “GGTAAATCGTTAATTGCTATGTCACAAGAGTGGCAAATAGCGGAGTCACCTAGTGCAG”, for which the binding signal is 12800 fluorescence intensity (a.u.).

As for “TATAGTTGATTTATTTAGGAGAGTTAGTTGATTTGTGTTCCGGAGTCACCTAGTGCAG”, the binding signal is 24100 fluorescence intensity (a.u.).

“GAAATTAACAGCGGCTTAATCAGAAGAAACGAACCAATCACGGAGTCACCTAGTGCAG”: the binding signal was 11500 fluorescence intensity (a.u.).

On to “TGGGCCTTGCATGAGTTTGATTGACCCTATGGTCTGCGCACGGAGTCACCTAGTGCAG”, for which the binding signal is 4520 fluorescence intensity (a.u.).

Take “GGCATGCTGATTGAGTTTATGTTCAGGTAAGCTATGAGAACGGAGTCACCTAGTGCAG”: the binding signal was 31600 fluorescence intensity (a.u.).

For “AGTGATTAGATTAGTGAACTGATTAACATTTCTTGTGTTCCGGAGTCACCTAGTGCAG”, the binding signal is 64700 fluorescence intensity (a.u.).

As for “ATATAATGGCCAGTCTAAATTTTACAAAATACAAGTGGCACGGAGTCACCTAGTGCAG”, the binding signal was 13400 fluorescence intensity (a.u.).

For the sequence “TCCTAATCAATCGCCGCCTTTTCTCTCTTCTCGCCTCTCCCGGAGTCACCTAGTGCAG”, the binding signal was 11400 fluorescence intensity (a.u.).

Take “GATAAATGACGACGCTAAATGTGTAGTTTTGTGATAAACGCGGAGTCACCTAGTGCAG”: the binding signal is 9810 fluorescence intensity (a.u.).

Regarding “GCTGATGGTTTGTGTCGGGAGGGGAGGATTGAGGATGCTTCGGAGTCACCTAGTGCAG”, the binding signal is 9110 fluorescence intensity (a.u.).

Take “TACTTATGTAAAAGGATTGATTTAAGAGAATGGTCCAAACCGGAGTCACCTAGTGCAG”: the binding signal was 3890 fluorescence intensity (a.u.).

With “AGAGATTTGTTTGGTGAATGGTGATTTCTTCCTGTGATGACGGAGTCACCTAGTGCAG”, the binding signal is 6100 fluorescence intensity (a.u.).

Consider “AAATCAATCTGATGGGCCGAATTGGAGGCCCATATCCGTGCGGAGTCACCTAGTGCAG”, for which the binding signal is 8660 fluorescence intensity (a.u.).

Regarding “TTTTCATAAACAAGTGATTGGTGTCACTGACAACAACCCTCGGAGTCACCTAGTGCAG”, the binding signal was 12900 fluorescence intensity (a.u.).

With “TGTATTTGAATTTGATTGTTCTTGAGATTACTGAGTTGGACGGAGTCACCTAGTGCAG”, the binding signal was 6610 fluorescence intensity (a.u.).

On to “ATAAAATTTATAATCATTTGACTTTTCTTTAAATCCAGAACGGAGTCACCTAGTGCAG”, for which the binding signal was 17700 fluorescence intensity (a.u.).

Take “TAAAACTTATTTCTTGATAGATCAATCCCAGATTACAATGCGGAGTCACCTAGTGCAG”: the binding signal was 8210 fluorescence intensity (a.u.).

Consider “ATTAGATAGTACTAATACCTGATTAGACGCCGTCCCATTGCGGAGTCACCTAGTGCAG”, for which the binding signal was 4870 fluorescence intensity (a.u.).

In the case of “TTGGTTTTGCCAATTAGATGGCTAATCGATCGATCAATCGCGGAGTCACCTAGTGCAG”, the binding signal is 6280 fluorescence intensity (a.u.).

Take “AATCGAATTCAATCATGAAGAACGAGATAGCAACATTTAGCGGAGTCACCTAGTGCAG”: the binding signal was 12300 fluorescence intensity (a.u.).

“TTAATTACAAATTGATTTGATCACGTAGATAATTACATCACGGAGTCACCTAGTGCAG”: the binding signal was 62000 fluorescence intensity (a.u.).

Consider “TTGCGTAACTCCCCTAATTATAATGGCGCCTAAACCAAACCGGAGTCACCTAGTGCAG”, for which the binding signal is 7110 fluorescence intensity (a.u.).

With “TCAACTGATGAGAGTAAACATCCATATGCTCTCAGAGGCACGGAGTCACCTAGTGCAG”, the binding signal is 3140 fluorescence intensity (a.u.).

As for “GTGATAATTTTATTACTAAATTTATAGTTTGGTGATCTTCCGGAGTCACCTAGTGCAG”, the binding signal was 28200 fluorescence intensity (a.u.).

In the case of “AAAATGGGGTGGGATTAGAATTGGTAAATGAATCAGGGTTCGGAGTCACCTAGTGCAG”, the binding signal is 3800 fluorescence intensity (a.u.).

In the case of “GGCATTGACTGCAAATATGCAATCATGGGATTGACCACTACGGAGTCACCTAGTGCAG”, the binding signal is 21900 fluorescence intensity (a.u.).

On to “CATTAATTGACCGTAAATTTAGAATAAGGCCAGCATTAGTCGGAGTCACCTAGTGCAG”, for which the binding signal is 38700 fluorescence intensity (a.u.).
